Molecules are shown by their SMILES. The list shows a part of the results.

The test relates to S. aureus RN4220. The test can be described thus: growth inhibition call (relative growth <= 0.2). Particulars: 50 µM.
For `CCOC(=O)N(C)C[C@@H]1OCc2cn(nn2)CCCC(=O)N([C@H](C)CO)C[C@H]1C`, the growth inhibition call is “inactive”. In the case of `C=CCOC(=O)[C@@H]1[C@@H]2C=C[C@@]3(O2)[C@@H]1C(=O)N(CCCCCCO)[C@H]3C(=O)N(CC=C)Cc1ccccc1`, the growth inhibition call is “inactive”. For `Cn1[nH]c(=O)cc1C(F)(F)F`, the growth inhibition call is “inactive”. The value for `C[C@@H]1O[C@@H](O[C@H]2[C@H](Oc3cc(O)c4c(=O)cc(-c5ccc(O)cc5)oc4c3)O[C@H](CO)[C@@H](O)[C@@H]2O)[C@H](O)[C@H](O)[C@H]1O` was “inactive”; that for `O=C1CN2CCN3CCN([C@@H](CO)[C@@H](O)CO)CCN(CC2)CC(=O)[O][Gd]([O]1)[O]C(=O)C3` was “inactive”; that for `CC(=O)NCC(=O)N1CCOC[C@]2(CC[C@@H](Cn3cccn3)O2)C1` was “inactive”. Consider `CO[C@@H]1[C@H](O)[C@@H](CO)O[C@H]1n1ccc(N)nc1=O`, for which the growth inhibition call was “inactive”.

On to `C[C@@H]1CN([C@@H](C)CO)C(=O)c2cc(NC(=O)c3ccncc3)ccc2O[C@@H](C)CCCCO[C@H]1CN(C)C(=O)Nc1ccc2c(c1)OCO2`, for which the growth inhibition call was “inactive”.

On to `C[C@@H]1CCCCO[C@@H](CN(C)Cc2ccncc2)[C@H](C)CN([C@@H](C)CO)C(=O)c2cc(NC(=O)Cc3ccccc3)ccc2O1`, for which the growth inhibition call was “inactive”. With `C[C@@H]1CN([C@@H](C)CO)C(=O)c2cc(NC(=O)Nc3cccc4ccccc34)ccc2O[C@@H](C)CCCCO[C@@H]1CN(C)S(=O)(=O)c1ccccc1`, the growth inhibition call is “inactive”. The value for `C[C@H](CO)N1C[C@H](C)[C@H](CN(C)Cc2ccncc2)Oc2cc(C#CCN(C)C)ccc2S1(=O)=O` was “inactive”.

Regarding `O=C(CN1CCOCC1)N[C@H]1CC[C@@H](CCNC(=O)Nc2cc(F)ccc2F)O[C@H]1CO`, the growth inhibition call is “inactive”.

Source of the values: the antibiotic and cytotoxicity screens of Wong et al. (2023).
